Results taken from PubChem BioAssay AID493208 (National Center for Advancing Translational Sciences (NCATS), 2011).
The whole screen tested about 44,000 compounds, of which about 340 (0.77%) were called active. Inconclusive results (about 5%) are left out. Calls follow the shape of the dose curve; as a rule, active = well fitted inhibition curve with a large enough effect; inconclusive = small, poorly fitted or top-dose-only effect; inactive = flat fitted curve, though single readings scatter. The list shows a part of the results.

assay: Acumen qHTS Assay for Inhibitors of the mTORC1 Signaling Pathway in MEF (Tsc2-/-, p53-/-) Cells: Sytravon; conditions: phospho-rpS6 immunofluorescence/PI, 24 h; series mostly up to 38.3 µM; activity change, negative = inhibition: at the top concentration;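 also: plate controls were DMSO for no effect and rapamycin for full effect; nearly all actives have a fitted effect of over 50% in size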
How it was run: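 Tsc2-/-, p53-/- mouse embryonic fibroblasts (empty-vector line) exposed to compound 24 hrs at 37 C, fixed, immunostained for phospho-rpS6 and counterstained with propidium iodide. Acumen laser scanning gives % positive cells from Alexa 488/PI ratio, thresholded using 7.5 nM rapamycin; PI count gives viability.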

| Compound | activity change, negative = inhibition |
| --- | --- |
| O=C(NCc1ccccc1Cl)c1ccc(Cn2c(=O)c3cccn3c3cccnc32)cc1 | inactive: -10.2% |
| Cc1cccc(CNC(=O)c2ccc(C)c(-n3c(C)nc4cccnc43)c2)c1 | inactive: 0% |
| CCOc1ccc(-n2c(=O)c3c(C)c(C)sc3n(CC(=O)N3CCC(C)CC3)c2=O)cc1 | inactive: 1.96% |
| COCCCNC(=O)c1cnn(-c2ccc(F)cc2F)c1C1CCNCC1 | inactive: -5.9% |
| O=C(Cn1c(=O)oc2cc(S(=O)(=O)NCc3ccccc3)ccc21)NCc1ccccc1Cl | inactive: -11.6% |
| Nc1ccc2nc(-c3ccc(O)cc3)sc2c1 | inactive: -7.36% |
| COc1ccc(NC(=O)CC2C(=O)N(c3ccc(F)cc3)C(=O)N2CCc2sccc2C)cc1 (configuration not stated) | inactive: 2.3% |
| CCOC(=O)c1cc(-c2ccccc2)n(CCC(=O)Nc2cc(C)cc(C)c2)c1C | inactive: 2.27% |
| Cc1ccc2scc(N3CCCCC3)c(=O)c2c1 | inactive: -0.503% |
| CN(Cc1ccccc1)C(=O)C1CCC(CNS(=O)(=O)c2ccc3c(c2)CCCC(=O)N3)CC1 (configuration not stated) | inactive: -16.6% |
| Cc1ccc(N2CCN(C(=O)C3CCN(c4ncnc5c4nc4n5CCCCC4)CC3)CC2)c(C)c1 | inactive: -1.61% |
| Cc1ccc2nc(NC(=O)c3nc(SCc4ccccc4C)ncc3Cl)sc2c1 | inactive: 4.83% |
| O=C(O)CCc1nnc2cnc3ccccc3n12 | inactive: -0.307% |
| Cc1ccc2ncc(C(=O)NC(C)c3ccccc3)c(=O)n2c1 (configuration not stated) | inactive: 1.38% |
| CCc1nn(CC(=O)NCCCc2ccccc2)c(=O)c2cc3c(OC)cccc3n12 | inactive: -9.01% |
| CC(=O)N1CCC2(CC1)OC(=O)C(C)=C2C(=O)NCc1cccc(Cl)c1 | inactive: -0.694% |
| Cc1ccc(N2CCN(C(=O)c3c(C)oc4ncnc(N5CCOCC5)c34)CC2)c(C)c1 | inactive: -7.9% |
| Cc1ccc(N2C(=O)CS(=O)(=O)C23C(=O)N(C)c2ccccc23)cc1F (configuration not stated) | inactive: -3.89% |
| Cc1ccc(CN2CCCn3nc(C(=O)NCc4cc(C)ccc4C)cc3C2=O)cc1 | inactive: 0% |
| Cc1ccc(C(=O)Nc2nnc(S(=O)(=O)N3CCN(c4ccc(F)cc4)CC3)s2)cc1 | inactive: 7.03% |
| O=[N+]([O-])c1cc(-c2nc(-c3ccccn3)no2)ccc1NCc1ccccc1 | inactive: -0.653% |
| CCc1cccc(NC(=O)CSc2ncc3c(n2)-c2ccccc2N(CC)S3(=O)=O)c1 | inactive: -5.21% |
| COc1ccc(NC(=O)C(C)n2nc(-c3cc(C)ccc3C)c3c(c2=O)CCCC3)cc1 (configuration not stated) | inactive: -6.07% |
| COCCCNC(=O)CCC(=O)NNc1nc2ccccc2c2nc(-c3ccccc3)nn12 | inactive: -7.69% |

| Compound | activity change, negative = inhibition |
| --- | --- |
| COCCNC(=O)CSc1nc2cc3c(cc2c(=O)n1Cc1ccc(C(=O)NCCc2ccc(OC)c(OC)c2)cc1)OCO3 | inactive: -4.98% |
| CCOc1ccc(NC(=O)CSc2nnc(-c3ccncc3)n2-c2ccccc2)cc1 | inactive: -2.55% |
| COc1ccc(CNC(=O)c2ccc(CSc3nc4ccncc4n3Cc3ccccc3F)cc2)cc1 | inactive: 1.05% |
| CCOc1ccc(Nc2ncnc3c2cnn3-c2ccc(F)cc2)cc1 | inactive: 13% |
| CCOC(=O)C(=O)Nc1nnc2n1CCS2 | inactive: -0.909% |
| Cc1nc2c(C(=O)NCc3ccccc3Cl)cnn2c(C)c1Cc1ccccc1 | inactive: -3.63% |
| COc1ccc(NC(=O)Cn2c(=O)n(Cc3ccccc3)c(=O)c3oc4ccccc4c32)cc1Cl | inactive: 1.39% |
| Cc1nc(N2CCCC2)ncc1C(=O)N1CCN(c2ccc(Cl)cc2)CC1 | inactive: 4.07% |
| Cc1ccc(C)c(-n2cc(-c3ccccc3)nc2SCC(=O)Nc2ccccc2)c1 | inactive: 3.14% |
| Cn1cc(S(=O)(=O)N2CCCCC2)cc1C(=O)N1CCN(c2ccccc2F)CC1 | inactive: -1.26% |
| O=C(CSc1nc2c([nH]c3ccccc32)c(=O)n1-c1ccc(Cl)cc1)N1CCCCCC1 | inactive: 0.905% |
| COc1cccc(-c2csc(-c3c(N)c(C(=O)c4ccccc4)n4ccccc34)n2)c1 | inactive: 8.23% |
| CCOC(=O)c1ccccc1NC(=O)Cn1c(=O)n(CCCC(=O)NCc2ccc3c(c2)OCO3)c(=O)c2ccccc21 | inactive: -0.347% |
| COC(=O)c1c(SCC(=O)Nc2cccc(Cl)c2C)[nH]c2ccccc2c1=O | inactive: 0% |
| CN(C(=O)c1c2c(nc3ccccc13)C(=O)N(C1CCCCC1)C2)c1ccc(F)cc1 | inactive: -17.4% |
| Cc1ccc(S(=O)(=O)NCCc2csc3nc(-c4ccccc4F)nn23)cc1C | inactive: 2.32% |
| COc1cccc(-c2nc(SCc3ccc(C)cc3)n3[nH]c(=O)cc3n2)c1 | inactive: -1.77% |
| CC(C)(C)OC(=O)N1CCC(c2c(C(=O)N3CCC(c4ccccc4)C3)cnn2-c2ccc(Cl)cc2)CC1 (configuration not stated) | inactive: 5.75% |
| Cc1ccc(C)c(N2CCN(c3nc4ccc(Cl)cc4n4cnnc34)CC2)c1 | inactive: -3.7% |
| CCOC(=O)c1c(C)oc2ncnc(N3CCN(c4ccccc4)CC3)c12 | inactive: -13.8% |
| O=[N+]([O-])c1ccc(S(=O)(=O)N2CCn3cccc3C2c2ccccc2F)cc1 (configuration not stated) | inactive: 0.166% |
| CC(NC(=O)C1CCN(S(=O)(=O)c2ccc3c(c2)oc(=O)n3C)CC1)c1ccccc1 (configuration not stated) | inactive: -7.27% |
| Cc1ccccc1OCc1nnc(SCc2cc(=O)c3ccc(C)c(C)c3[nH]2)n1C | inactive: -6.56% |
